The text below walks through data of PubChem BioAssay AID485344 (National Center for Advancing Translational Sciences (NCATS), 2010).

About 6,900 (2%) of roughly 340,000 compounds were called active. Rule as the data show it: active = inhibition above about 30%; inactive = below that, where a call was filed. The entries are a selection whose mix differs from that of the whole data set. Entries without a call were filed so in the source.

Chain of UniProt P14416 (P14416 whole entry, looked up): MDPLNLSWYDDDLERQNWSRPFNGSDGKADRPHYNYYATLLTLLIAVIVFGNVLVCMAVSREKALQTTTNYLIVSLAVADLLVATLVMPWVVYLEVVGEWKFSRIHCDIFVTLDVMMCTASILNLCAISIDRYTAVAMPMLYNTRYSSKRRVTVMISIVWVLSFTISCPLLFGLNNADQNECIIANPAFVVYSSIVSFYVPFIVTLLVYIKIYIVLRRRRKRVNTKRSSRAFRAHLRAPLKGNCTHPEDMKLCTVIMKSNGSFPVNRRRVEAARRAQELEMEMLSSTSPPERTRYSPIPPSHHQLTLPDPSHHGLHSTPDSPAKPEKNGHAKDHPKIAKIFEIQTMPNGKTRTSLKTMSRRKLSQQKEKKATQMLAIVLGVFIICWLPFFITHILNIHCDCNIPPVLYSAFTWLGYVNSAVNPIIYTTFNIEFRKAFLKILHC

For this experiment, the target named is D(2) dopamine receptor (Homo sapiens) (UniProt P14416). Kind of experiment: HTS Assay for Allosteric Antagonists of the Human D2 Dopamine Receptor: Primary Screen for Antagonists. Also: 0% is about no effect. As to conditions: HEK293 TREx D2 cells, calcium flux, dopamine EC80; at 10 µM; stronger effect = higher value. A digest of the protocol:
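Inhibition of EC80 dopamine-driven calcium flux, recorded kinetically, defines activity here; cells are a tetracycline-induced HEK293 T-REx line expressing force-coupled D2.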
On the technique in general: Calcium flux is commonly read through the fluorescence of an indicator in the cells.
With `COc1cc(NC(=O)c2nc(-c3ccc(Cl)cc3)n3c2CCCCC3)cc(OC)c1OC`, the inhibition – broadly, the change of the read-out against control, counted positive when it falls – is -12.5%.

Regarding `COc1ccc(CNC(=O)c2cc(C3CC3)nc3c2c(C)nn3-c2cccc(Cl)c2C)cc1`, the inhibition came to 8.88%.

For the compound `CCn1c(=O)n(-c2ccc3c(c2)OCO3)c2nc(-c3cc(OC)ccc3OC)nc(C(N)=O)c21`, the inhibition worked out at 14.9%.

For `COc1ccc(CNC(=O)Cn2ccc3cc(S(=O)(=O)N4CCCC4)ccc32)c(OC)c1`, the inhibition is -0.934%.

In the case of `Cc1cccc(C(=O)Nc2ccc3nc(SCC(=O)N4CCc5ccccc54)sc3c2)c1`, the inhibition was -6.91%.

Consider `COC(=O)c1ccccc1NC(=O)c1sc2nc(C)cc(C)c2c1NC(=O)c1ccccc1Cl`, for which the inhibition stood at 6.23%.

`Cc1cc(/C=C(\C#N)C(=O)Nc2ccccc2)c(C)n1-c1ccc(F)cc1`: the inhibition was -22.9%.

`COc1ccc(NC(=O)c2cc(C(C)=O)n3ccccc23)cc1Cl`: the inhibition was found to be 5.76%.

Take `COc1ccc2c(CNCc3cccs3)c(C(=O)O)n(Cc3cccc(F)c3)c2c1`: the inhibition stood at 2.1%.

`Cc1ccc(C(=O)Nc2cccc(O)c2)cc1S(=O)(=O)N1CCCCCC1`: the inhibition was -24%.

With `CCN(CC)CCCNC(=O)c1cn(CC)c2ccc(S(=O)(=O)N3CCc4ccccc4C3)cc2c1=O`, the inhibition is 15.6%.

As for `CCCC(=O)Nc1ccc2oc(-c3cncc(Br)c3)nc2c1`, the inhibition is active: 39%.

With `O=S(=O)(c1ccccc1)c1nc(-c2ccc(Cl)cc2Cl)oc1N1CCCCC1`, the inhibition was 0.905%.

For `Cc1ccc(CN2CCN(C3CCN(C(=O)c4ccccc4)CC3)C(=O)C2=O)cc1`, the inhibition came to 4.3%.

For `COc1ccc(C)cc1NC(=O)Cn1c(=O)cc(C)c2c(C)nn(C)c21`, the inhibition was 5.75%.

`Cc1nc(-c2ccc(Cl)cc2)sc1CCNC(=O)Cc1ccc(F)cc1`: the inhibition turned out to be 6.32%.

`O=C(CNC(=O)c1ccccc1F)OCc1cc(=O)n2ccsc2n1`: the inhibition was -2.1%.

As for `CCN(CC)C(=O)Cn1c(=O)n(-c2ccc(OC)cc2OC)c(=O)c2c(C)c(C(=O)N(CC)CC)sc21`, the inhibition is -24.2%.

Turning to `COc1ccc(NC(=O)c2c(-c3ccc(C)cc3)nnc3ccccc23)cc1Cl`, the inhibition came to 4.65%.

As for `COc1ccccc1C(=O)Nc1nnc(SCc2cc(=O)c3cc(Cl)ccc3[nH]2)s1`, the inhibition is -5.17%.

Regarding `COc1ccc(OC)c(NC(=O)Cn2ccc3ccccc3c2=O)c1`, the inhibition is -7.64%.

In the case of `Cc1ccc(C)c(N2CCN(C(=O)C3CCCN(S(=O)(=O)c4cccc5nsnc45)C3)CC2)c1` (stereo not given), the inhibition amounted to 10.8%.

Turning to `COc1cccc(CNC(=O)c2ccc3c(c2)nnn3C2CCCC2)c1`, the inhibition came out at 2.75%.

As for `Cc1ccc(N(CC(=O)NCc2ccc(F)cc2)S(=O)(=O)c2c(C)nn(C)c2C)cc1`, the inhibition was -3.44%.

Consider `CCCCSCCCNC(=O)c1cn(C)c2ccc(S(=O)(=O)N3CCCCC3)cc2c1=O`, for which the inhibition is -15.9%.

Turning to `Cc1ccc(-n2cc(-c3ccccc3)nc2S(=O)(=O)CC(=O)Nc2ccc(F)cc2)cc1`, the inhibition is 13.5%.

In the case of `COc1ccc(-n2nc(C(=O)Nc3ccc(C)cn3)c3c4ccccc4n(C)c3c2=O)cc1`, the inhibition came out at 5.39%.

Regarding `CNS(=O)(=O)c1cn(CC(=O)Nc2cccc(OC)c2)cc1S(=O)(=O)NC`, the inhibition was -0.683%.

For `Cc1c(Cl)cccc1NC(=O)c1noc2c1CCCC2`, the inhibition stood at 15.4%.

Turning to `Cc1ccc(NC(=O)CSc2ncn[nH]2)cc1C`, the inhibition is -13.2%.

`CCOc1ccccc1NC(=O)CCc1c(C)nn(-c2ccc(N3CCOCC3)nn2)c1C`: the inhibition was -2.49%.

In the case of `CCOC(=O)Cn1c(=O)n(CC2CCCO2)c2nc(-c3cccc(C)c3)nc(C(N)=O)c21` (stereo not given), the inhibition was -12.4%.

In the case of `COC(=O)c1ccc(-n2c(CCC(=O)O)ccc2-c2ccc(C)cc2)cc1`, the inhibition amounted to 8.53%.

`COc1ccccc1OC(C)C(=O)Nc1c(C(=O)c2ccc(Cl)cc2)oc2ccccc12` (stereo not given): the inhibition is -4.32%.

As to `Cn1c(=O)oc2cc(S(=O)(=O)NC(Cc3ccccc3)C(=O)NCc3ccc(F)cc3)ccc21` (stereo not given), the inhibition was found to be 7.07%.

Take `Cc1ccc(C)c(N2CCN(Cc3nnc(-c4ccc5c(c4)OCO5)o3)CC2)c1`: the inhibition was found to be 8.51%.

Take `CCn1c(C)c(C)c2cc(C(=O)NCCCN3CCCCC3)ccc21`: the inhibition was -24.1%.

For the compound `CCC(=O)N1c2ccccc2CC1C(=O)NCCN1CCN(c2cccc(C(F)(F)F)c2)CC1` (stereo not given), the inhibition was -10%.

As to `CCOc1ccc(CNS(=O)(=O)c2ccc3[nH]c(=O)ccc3c2)cc1`, the inhibition is -12.3%.

On to `C/C=C(\C)CN1CCN(c2ccccc2F)CC1`, for which the inhibition was active: 65.4%.

As to `CC(=O)Nc1nonc1-c1nnc(SCC(=O)Nc2ccccc2)n1-c1ccccc1`, the inhibition was -0.7%.

For the compound `CCCCOc1ccc(CNC(=O)c2ccc(NC(=O)N3CCCCc4ccccc43)cc2)cc1`, the inhibition was -18.1%.

`O=C(CCCn1c(=O)c2cccn2c2ccc(F)cc21)NCc1ccc(Cl)cc1`: the inhibition came out at 5.27%.

Take `CCc1ccc(NC(=O)C(=O)NCC(c2cccnc2)N2CCN(Cc3ccccc3)CC2)cc1` (stereo not given): the inhibition was determined as 13.5%.

As for `Cc1ccc(-n2nc(CO)c(C(=O)NC(C)CCCc3ccccc3)n2)cc1C` (stereo not given), the inhibition was -4.28%.

In the case of `CC1CCN(C(=O)CSc2c(C(C)C)cnc3c2c(=O)n(C)c(=O)n3C)CC1`, the inhibition amounted to 13.3%.

Regarding `COC(=O)CC1Oc2ccccc2-n2cc(-c3ccccc3)nc21` (stereo not given), the inhibition is -9.5%.

For `Cc1ccccc1CSc1nc2cc(C(=O)NC3CCCC3)ccc2c(=O)n1Cc1ccccc1`, the inhibition was -16.1%.

On to `Cc1cc2c(cc1C)NC(CC(=O)Nc1ccccc1)C(=O)N2` (stereo not given), for which the inhibition is -23.2%.

As to `CCN(Cc1ccccc1)C(=O)Cn1cc(S(=O)(=O)Cc2cccc(Cl)c2)c2ccccc21`, the inhibition was -1.87%.

Consider `Cc1ccc(O)c(NC(=O)c2ccc(Br)c(S(=O)(=O)N3CCCCC3)c2)c1`, for which the inhibition was -6.33%.

For `Cc1ccc(S(=O)(=O)N(CC(=O)N2CCCCC2)c2cccc(C)c2)cc1`, the inhibition was active: 31.8%.

Regarding `CCS(=O)(=O)c1ncc(N(Cc2ccccc2)Cc2ccco2)c(C(=O)Nc2ccc(C)c(C)c2)n1`, the inhibition was -3.37%.

Turning to `CCOc1ccc(NC(=O)c2ccc3c(=O)n4nc(Nc5ccccc5C)sc4nc3c2)cc1`, the inhibition is -1.39%.

For the compound `CCn1c(NCc2ccc(OC)cc2)nc2ccccc21`, the inhibition was determined as 8.04%.

Take `COc1ccc(CCNC(=O)CCCCn2c(=O)c3ccccc3n(Cc3ccccc3C)c2=O)cc1OC`: the inhibition was determined as 3.76%.

Regarding `COc1cc(C(CC(=O)Nc2ccc(F)cc2F)N2Cc3ccccc3C2=O)cc(OC)c1OC` (stereo not given), the inhibition stood at 2.95%.

On to `COCCNC(=O)CCc1c(C)nc2c(-c3ccc(F)cc3)c(C)nn2c1C`, for which the inhibition was -8.49%.

In the case of `CCC(=O)Nc1ccc(CC)cc1-c1nc2ccccc2n(CC(=O)Nc2cccc(Cl)c2)c1=O`, the inhibition worked out at 3.9%.

Take `CCCCCn1cc2c(c1-c1ccc(Br)cc1)c(=O)n(C)c(=O)n2C`: the inhibition was -12.6%.

`COc1ccc(OC)c(NC(=O)c2cc3cc(C)ccc3n2C)c1`: the inhibition was 5.26%.

`CCc1ccccc1NC(=O)Cn1c(=O)n(-c2ccc(C)cc2)c(=O)c2c1c1cc(C)ccc1n2C`: the inhibition is -1.82%.

`Cc1nc2ncnn2c(C)c1CCC(=O)N1CCN(c2ccccc2)CC1`: the inhibition is -25.5%.

Regarding `O=C(Cn1c(=O)oc2cc(Cl)ccc21)Nc1cccc(C(F)(F)F)c1`, the inhibition was 9.02%.

In the case of `COc1cccc(NC(=O)Cn2nnc(-c3nc(-c4ccccc4)no3)c2N)c1`, the inhibition was -0.588%.

In the case of `COc1ccc(NC(=O)c2ccc3nc(CCc4ccccc4)oc3c2)c(OC)c1`, the inhibition was 24.4%.

On to `CCOc1ccc(C(=O)Nc2c(C(=O)c3ccc(OC)cc3)oc3ccccc23)cc1`, for which the inhibition worked out at 3.32%.

Regarding `O=C(NCCc1ccccc1)c1ccc(Cn2c(SCc3cccc(F)c3)nc3cccnc32)cc1`, the inhibition came to 11.9%.

Consider `N#C/C(=C\c1ccc(O)c(Br)c1)C(=O)NCc1ccccc1`, for which the inhibition was active: 69.4%.

`COc1ccccc1N1CCN(Cc2cccc(OC)c2OC)CC1`: the inhibition is active: 71.3%.

As to `Cc1nn(CC(=O)Nc2ccccc2C(F)(F)F)c(=O)c2cccn12`, the inhibition came to 6.58%.

With `CCCCN(CC)CCNC(=O)CN1C(=O)COc2ccc(S(=O)(=O)N3CCCC3)cc21`, the inhibition is -11.4%.

As for `Cc1ccc(CCNC(=O)CCn2nc(-c3ccccc3)ccc2=O)cc1`, the inhibition was -3.62%.

Turning to `CCCSCCCNC(=O)C1CCCN(c2nn3cc(-c4ccc(OC)cc4)nc3s2)C1` (stereo not given), the inhibition was -4.36%.

Turning to `Cn1c(=O)c(=O)n(C)c2cc(NC(=O)c3cccc(F)c3)c(Cl)cc21`, the inhibition was -18.1%.

In the case of `COc1ccc(CCNC(=O)Cn2c(=O)nc(-c3ccccc3)c3ccccc32)cc1OC`, the inhibition was found to be 1.68%.

Take `COc1ccc(N(CC(=O)NCc2ccccc2Cl)S(=O)(=O)c2c(C)nn(C)c2C)cc1`: the inhibition is -16.1%.

Turning to `CCOc1ccc(C(=O)c2cn(CC(=O)Nc3ccc(F)cc3)c3cc4c(cc3c2=O)OCO4)cc1`, the inhibition worked out at 15.1%.

As for `CCOc1ccccc1CNC(=O)CCCn1ncn2c(cc3occc32)c1=O`, the inhibition was -6.29%.

In the case of `CN(C)CCCN(C(=O)c1ccc(Br)s1)c1nc2ccc(F)cc2s1`, the inhibition came out at 7.42%.

For `Cc1ccc2cccc(NC(=O)COc3cc(C)c(Cl)c(C)c3)c2n1`, the inhibition is 17.8%.

Turning to `Fc1ccc(C(NCCc2ccc(Cl)cc2)c2nnc(-c3ccccc3)o2)c(Cl)c1` (stereo not given), the inhibition was 20.5%.

With `COc1ccccc1CNC(=O)CCn1c(=O)c2ccccc2n(CC(=O)Nc2ccc(C)cc2Cl)c1=O`, the inhibition worked out at 0.878%.

Take `Cc1c(NC(=O)Nc2ccc(Br)cc2F)sc2nc3n(c(=O)c12)CCC(C)CC3` (stereo not given): the inhibition came out at 4.25%.

Regarding `Cc1nn2c(=O)cc(CSc3nc4ccccc4[nH]3)nc2s1`, the inhibition is active: 38.8%.

Regarding `CCc1cccc(C)c1NC(=O)c1cc(S(=O)(=O)NCc2ccccc2Cl)ccc1F`, the inhibition worked out at 27.3%.

For the compound `CCCn1c2ccccc2c2cnn(CC(=O)N(C)c3ccccc3CC)c(=O)c21`, the inhibition came out at 17%.

Consider `Cc1ccc(NS(=O)(=O)c2ccc3[nH]c(=O)oc3c2)c(C)c1`, for which the inhibition was -5.48%.

`O=C(CCC1N=C2c3ccccc3N=C(SCc3ccc(Cl)cc3)N2C1=O)NCCc1ccccc1` (stereo not given): the inhibition worked out at 2.37%.

For the compound `Cn1c(=O)cc(OCCCC(=O)NCCN2CCN(c3ccccc3F)CC2)c2ccccc21`, the inhibition was active: 35.6%.

As for `COc1cc2nc(SCC(=O)Nc3c(C)cc(C)cc3C)n3nc(CCn4c(C)nc5ccccc54)nc3c2cc1OC`, the inhibition was -8.52%.

For `Cc1ccc(CSc2oc(-c3ccco3)nc2S(=O)(=O)c2ccc(C)cc2)cc1`, the inhibition is -4.93%.

For `COc1cc(/C=C(\C#N)c2nc3ccccc3[nH]2)cc(Cl)c1OCc1ccccc1Cl`, the inhibition is 8.6%.

`CCc1ccc(-n2c(=O)c3c(C)c(C)sc3n(CC(=O)NCc3ccc(C)cc3)c2=O)cc1`: the inhibition was 25.1%.

With `CCOC(=O)c1ccc(NC(=O)/C(C#N)=C/c2ccc(OC)cc2)cc1`, the inhibition was -7.64%.
